Measurements published in PubChem BioAssay (NCATS).
“And” between values parts separate entries of the source, which are not always exact repeats. Equal entries are not always repeated. Inconclusive results, whose numbers are uncertain, are shown with a selection of clear calls. For some assays here: A potency beside an inconclusive call is a rough fit, not a confirmed value. The source made the active and inactive calls. Calls follow the shape of the dose curve; as a rule, active = well fitted curve in the direction sought with a large enough effect; inconclusive = small, poorly fitted or top-dose-only effect, or another doubt; inactive = no such curve, though single readings can be large; an effect the other way counts as inactive or inconclusive.

Columns and labels:
[1] = Viability qHTS for spleen associated tyrosine kinase inhibitor (SYKi) naive MV4-11 cells (AID 1963823); conditions: MV4-11 AML viability, CellTiter-Glo luminescence, 72 h; series mostly up to 45 µM; also: nearly all actives have a fitted effect of over 40% in size
Method in brief: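 Cells: MV4-11, SYK inhibitor naive, 500 per well. Treatment: library compounds, 72 hr, 37 C, 5% CO2. Read-out: CellTiter-Glo luminescence after 10 min RT.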

[2] = Viability qHTS for spleen associated tyrosine kinase inhibitor (SYKi) drug resistant MV4-11 cells (AID 1963824); also: nearly all actives have a fitted effect of over 35% in size
Method in brief: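 SYK inhibitor-resistant MV4-11 AML cells, 500 per well, added to predispensed compounds and incubated 72 hr at 37 C, 5% CO2. Viability measured by CellTiter-Glo luminescence after 10 min at room temperature.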

[3] = Quantitative highthroughput screen to assess conditional lethalithy of NOMO1 cells grown in RPMI1640 with untreated serum (RPMI+s) (AID 1963876); conditions: NOMO1 AML cells in RPMI+serum, CellTiter-Glo viability, 48 h; viability: at 45.8 µM (top of the series); also: nearly all actives have a fitted effect of over 35% in size
Method in brief: (§1)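 Each medium arm—HPLM with 10% dialyzed FBS, or RPMI1640 with 5 mM glucose and 10% untreated or dialyzed FBS—was screened against an 11-point, 3-fold compound titration for 48 h at 37 °C, with CellTiter-Glo luminescence as endpoint.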

[4] = Quantitative highthroughput screen to assess conditional lethalithy of NOMO1 cells grown in RPMI1640 with dialyzed fetal bovine serum (RPMI+ds) (AID 1963877); also: nearly all actives have a fitted effect of over 30% in size
Method in brief: as §1

[5] = Quantitative highthroughput screen to assess conditional lethalithy of NOMO1 cells grown in Human Plasma-Like Medium with dialyzed fetal bovine serum (HPLM+ds) (AID 1963878); conditions: NOMO1 AML cells in HPLM+ds, CellTiter-Glo viability, 48 h; viability: at 45.8 µM (top of the series); also: nearly all actives have a fitted effect of over 35% in size
Method in brief: as §1

[6] = Quantitative highthroughput screen to assess conditional lethalithy of P12 Ichikawa cells grown in RPMI1640 with dialyzed fetal bovine serum (RPMI+ds) (AID 1963880); conditions: Potency: P12-Ichikawa viability; also: nearly all actives have a fitted effect of over 35% in size
Method in brief: as §1

[7] = Quantitative highthroughput screen to assess conditional lethalithy of SEM cells grown in Human Plasma-Like Medium with dialyzed fetal bovine serum (HPLM+ds) (AID 1963882); also: nearly all actives have a fitted effect of over 35% in size
Method in brief: as §1

[8] = Quantitative highthroughput screen to assess conditional lethalithy of SEM cells grown in RPMI1640 with unreated serum (RPMI+s) (AID 1963883); conditions: SEM B-ALL cells, CellTiter-Glo viability, 48 h; viability: at 45.8 µM (top of the series); also: nearly all actives have a fitted effect of over 35% in size
Method in brief: as §1

[9] = Quantitative highthroughput screen to assess conditional lethalithy of P12 Ichikawa cells grown in RPMI1640 with untreated serum (RPMI+s) (AID 1963881); conditions: Potency: viability; also: nearly all actives have a fitted effect of over 35% in size
Method in brief: as §1

[10] = Quantitative highthroughput screen to assess conditional lethalithy of SEM cells grown in RPMI1640 with dialyzed fetal bovine serum (RPMI+ds) (AID 1963884); conditions: SEM B-ALL cells, RPMI+dialyzed FBS, CellTiter-Glo viability, 48 h; viability: at 45.8 µM (top of the series); also: nearly all actives have a fitted effect of over 35% in size
Method in brief: as §1

[11] = Cellular viability qHTS for adrenocortical cancer (ACC) cell line SW-13 (AID 1963989); conditions: SW-13 ACC cells viability, CellTiter-Glo, 48 h; activity (max response): stronger effect = lower value; also: nearly all actives have a fitted effect of over 65% in size
Method in brief: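 48 h treatment, SW-13 in ITS/DMEM serum-free; doses up to 46 uM; readout CellTiter-Glo luminescence; curve fit four-parameter logistic.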

[12] = Cellular viability qHTS for adrenocortical cancer (ACC) cell line NCI-H295R (AID 1963990); conditions: CellTiter-Glo ATP luminescence, 48 h; series mostly up to 46.1 µM; also: nearly all actives have a fitted effect of over 60% in size
Method in brief: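 Compound titrations (up to 46 uM final) are applied to NCI-H295R cultures for 48 h at 37C. Viable cell number is estimated by CellTiter-Glo signal, normalised to DMSO and doxorubicin controls.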
Potency is read from the fitted curve at half-maximal effect; tags tell the direction and shape of the fitted curve.

Row | Compound | Potency [1] | Potency [2] | Potency [3] | Potency [4] | Potency [5] | Potency [6] | Potency [7] | Potency [8] | Potency [9] | Potency [10] | Potency [11] | Potency [12]
1 | O=C(CCCCCCNC(=O)c1cnc(N(c2ccccc2)c2ccccc2)nc1)NO | inconclusive: 461 nM [cytotoxic, full curve] and active: 2.95 µM | inconclusive: 326 nM [cytotoxic, full curve] | active: 18.7 µM | active: 16.6 µM | active: 14.8 µM | active: 5.9 µM | active: 7.43 µM |  |  |  |  | 
2 | CCc1c2c(nc3ccc(O)cc13)-c1cc3c(c(=O)n1C2)COC(=O)[C@]3(O)CC | inconclusive: 8.2 nM [cytotoxic, full curve] | active: 8.3 nM | inconclusive: 0.0332 µM [cytotoxic, full curve] | inconclusive: 0.0235 µM [cytotoxic, full curve] | inconclusive: 0.0187 µM [cytotoxic, full curve] | active: 0.0042 µM |  | active: 0.0083 µM |  |  |  | 
3 | N=C(N)c1ccc2cc(OC(=O)c3ccc(N=C(N)N)cc3)ccc2c1 | inconclusive: 33.5 µM [cytotoxic, single point] and inconclusive: 16.6 µM [cytotoxic, partial curve] | inconclusive: 18.8 µM [cytotoxic, partial curve, poor fit] and active: 18.6 µM | inconclusive: 18.7 µM [cytotoxic, single point] | inconclusive: 18.7 µM [cytotoxic, partial curve] | inconclusive: 37.2 µM [cytotoxic, single point] | inconclusive: 37.2 µM [cytotoxic, single point] |  |  | inconclusive: 37.2 µM [cytotoxic, single point] | inactive | inconclusive: 28.2 µM [cytotoxic, single point] | inconclusive: 16.4 µM [cytotoxic, partial curve, poor fit] and inconclusive: 5.62 µM [cytotoxic, partial curve, poor fit]
4 | Nc1nc(NCCNc2ncc(-n3ccnc3)c(-c3ccc(Cl)cc3Cl)n2)ccc1[N+](=O)[O-] | inconclusive: 18.4 µM [cytotoxic, partial curve, poor fit] and inconclusive: 6.61 µM [cytotoxic, full curve] | inconclusive: 820 nM [cytotoxic, full curve] | inconclusive: 0.833 µM [rising, partial curve] | inconclusive: 0.0021 µM [rising, full curve, poor fit] | inconclusive: 0.0012 µM [rising, full curve, poor fit] |  |  | inactive |  | inconclusive: 1.48 µM [cytotoxic, full curve, poor fit] |  | inactive
5 | O=C(Cc1cccc(OC(F)(F)F)c1)Nc1ccc(CCCCc2nnc(NC(=O)Cc3ccccn3)s2)nn1 | inconclusive: 11.8 nM [cytotoxic, full curve] | inconclusive: 18.6 nM [cytotoxic, full curve] | inconclusive: 0.0933 µM [cytotoxic, full curve, poor fit] | inconclusive: 0.066 µM [cytotoxic, full curve, poor fit] | inactive |  | active: 0.0524 µM | inconclusive: 0.0417 µM [cytotoxic, full curve] | inconclusive: 0.0933 µM [cytotoxic, full curve, poor fit] | inconclusive: 0.0105 µM [cytotoxic, full curve] |  | 
6 | CCOc1ccccc1N=Nc1c(C)[nH]n(-c2nc(-c3ccccc3)cs2)c1=O | inconclusive: 20900 nM [cytotoxic, partial curve, poor fit] | inconclusive: 18600 nM [cytotoxic, partial curve] | inconclusive: 16.6 µM [cytotoxic, partial curve] | inconclusive: 14.8 µM [cytotoxic, partial curve] | inconclusive: 13.2 µM [cytotoxic, partial curve] |  | active: 5.26 µM |  | inactive |  |  | 
7 | CC1=C(C(=O)Nc2cc3cn[nH]c3cc2F)C(c2ccc(Cl)cc2F)N=C(c2ccnc(Cl)c2)N1 (stereo unspecified) | inconclusive: 4680 nM [cytotoxic, partial curve] | active: 4.61 µM and active: 5.9 µM | inconclusive: 26.4 µM [cytotoxic, single point] | inconclusive: 37.2 µM [cytotoxic, single point] | inconclusive: 37.2 µM [cytotoxic, single point] |  |  | active: 18.7 µM | active: 18.7 µM |  | inconclusive: 28.2 µM [cytotoxic, single point] | 
